Numbering of substitutions follows the chain as printed. The list shows a part of the results.
B1: chr10:85910540:85910541:+_ENSG00000165678_ENST00000372134|perfect_dup|FALSE|FALSE (ssRNA)
RNA: GGGAGUUCUACAGUCCGACGAUCUUCUGCACGCUUGAUUACUUUCUGGGUAUCAUACAGAAGGAACAUGCUGAAAAGAACUAAUCCACCGUACAUUGCCACUGAGUAAAGAGUGGCACCAGCCACGGUGGUAGGUGGAAGAAACAACAGAGGAUUGAGCAUCA
B2: chr7:56126341:56126342:+_ENSG00000146731_ENST00000540286|hu_mus|hu_hu_hu_mus_True|38_88 (ssRNA)
RNA: GGGAGUUCUACAGUCCGACGAUCCAUGUUUCUCCUCUUGGCUCUGCGCAGAGCAACGAUCCCUUCUUUCGCAAGGGCAUCUAAGGAAAAGGGGUCAAUUCCCUUUUGAUUAAUAACGACAAAUCCUUUAUCUGAGUCACCACACAACAGAGGAUUGAGCAUCA
B3: chr7:56126341:56126342:+_ENSG00000146731_ENST00000540286|hu_mus|hu_hu_hu_mus_True|38_68 (ssRNA)
RNA: B2 RNA with A54U, C69U, C71A, G75A
B4: 36889487_36891479_500_CDS_ENSMUSG00000034243_ENSMUST00000039855|mouse|control|control (ssRNA)
RNA: GGGAGUUCUACAGUCCGACGAUCUUCCAUCUCUGCAGAACUCUUAUCCAACUGCGAGGCUUGUUCUGAUUGGUCAAGCUGGGCUUGCAAACUACUAAUUAAUUUCUCCUUUUCCUGGAGUUCAUGUUUUAUUUUUUCUAUUUCCAACAGAGGAUUGAGCAUCA
B5: chr11:29096238:29096239:+_ENSMUSG00000020463_ENSMUST00000020755|mus_mus|FALSE|FALSE (ssRNA)
RNA: GGGAGUUCUACAGUCCGACGAUCUUGCAAGUCAUCCAUGCCCAUUACAAUUUCAAGAGCUGGAAGAAUUCCCAAUUUUGCUAAGGUUUUGAAAAAAGCAUCCCUGUUCUGAGGUUGCAAUGUCUGAGAAAAUGCACAAAAUUCCAACAGAGGAUUGAGCAUCA
B6: chr18:34481789:34481790:+_ENSMUSG00000005871_ENSMUST00000115781|mus_mus|motif|central (ssRNA)
RNA: GGGAGUUCUACAGUCCGACGAUCAACAAGUGAACAGAAGUAUAGAGAAAAAUUAUCCUGAAUAUCAGAGGAAAGAAAGUCGGUUUAGCACCAAGAACAGCAUUAUACACAGAACAUACAGUCGGAAAGAUGCAUCAAUGGCCUCAACAGAGGAUUGAGCAUCA
B7: chr7:54823571:54823572:-_ENSG00000132432_ENST00000352861|hu_mus|hu_hu_hu_mus_False|28_88 (ssRNA)
RNA: GGGAGUUCUACAGUCCGACGAUCUCCCAUGAUAGCAAAUCCUAUAGCUGUUGCCAUGGCAAUCUUCUGGAAUUCUUUUCUGUCGGGUUUGGUGCAUCUUUUAACCAGCCGAAUGGAGUCCUUUACAAACUGCCGGCUGGGCUCCAACAGAGGAUUGAGCAUCA
B8: chr3:87781927:87781928:+_ENSMUSG00000004891_ENSMUST00000090973|mus_mus|FALSE|FALSE (ssRNA)
RNA: GGGAGUUCUACAGUCCGACGAUCCUGCUCCCUCUCCGGGCCCUCUUCCACUUCCAGGCACUGCUGACUGUCCUCCACCCCUCCUGGUGAUUCCACAGUCUCUGGGUUCCACUUGCCCAGAGAUCUCAGUUCUUGACUCUCCCUCAACAGAGGAUUGAGCAUCA
B9: chr18:5290039:5290040:-_ENSG00000198081_ENST00000357006|hu_hu|motif|central (ssRNA)
RNA: GGGAGUUCUACAGUCCGACGAUCCUAGGAAAUCUUGGGAUUGUUACACAUGUAAAAAACCUUAUCUCUGAGAGCCUUUUCGGUUCUUCUUACCACAGGUCCACUCACAAAUCGCAGCUGGUAUGGACUGGUACUGCCCCAAAUCAACAGAGGAUUGAGCAUCA
B10: chr2:48026839:48026840:+_ENSG00000116062_ENST00000540021|hu_hu|hu_hu_hu_mus_False|1_98 (ssRNA)
RNA: GGGAGUUCUACAGUCCGACGAUCAUAGUGAGCCACUAGAGUCCUAAAUCUGGAACAGUGGCGGUCAUCCGAAAACUGGCCGAUGAAAAACUUGCCCAGUGAAGUGUCCACAAAGCAAACACCAUACACACGAGUGUGGCCAGACAACAGAGGAUUGAGCAUCA
B11: chr22:19452774:19452775:-_ENSG00000070010_ENST00000399523|hu_hu|hu_hu_hu_mus_False|78_88 (ssRNA)
RNA: GGGAGUUCUACAGUCCGACGAUCCUUCUCAUUGUAGUUGAUAGCAAUCACAUCCCCGGUGGUCAGACAGGCGAAGUUUCUCAAUGCAUUUUCUAAUACCGCUUUAGGGUUGGUAAUAUCCAGGAAGUCUGGGCUCUGAGGCUGCAACAGAGGAUUGAGCAUCA
B12: chr15:76588000:76588001:-_ENSG00000140374_ENST00000560595|hu_mus|motif|central (ssRNA)
RNA: GGGAGUUCUACAGUCCGACGAUCGGACACUUCACCUCCAAGACGUCCAGCUGCAGUGAUAGUAUUUAGAGUAAUGGGUGCGGGGGAAUCAUUUGCAUGCUCAGCUAUUACCAAGGUACUCUGAAAACGGAGCAAUGAGGCCGCCAACAGAGGAUUGAGCAUCA
B13: chr6:41757443:41757444:+_ENSG00000214736_ENST00000398881|hu_mus|hu_hu_hu_mus_False|48_68 (ssRNA)
RNA: GGGAGUUCUACAGUCCGACGAUCGAACCGUGCAGAGGCAACAUCUCAGCCGACACUGGGGGAUGGGGGAACAAAAGGGGGGGGUUCAGGGAAGGGGAGGGAGUCAACUUCAGCUGCCACUCAGGUAGGAUCUUGUGGUCACAGCAACAGAGGAUUGAGCAUCA
B14: chrX:71549400:71549401:+_ENSMUSG00000019087_ENSMUST00000019231|mus_hu|mus_mus_mus_hu_False|1_8 (ssRNA)
RNA: GGGAGUUCUACAGUCCGACGAUCGCAGUAGGAAGAGGGAAGCUCUUCAGUCCAGUGCGCUGCAGGGUGGGAAAGCAACAACACGGACACCGUCCCACCCUCAACCCCCCCACUGGCACAGGGUCACAUCUGGGUCAAAGUGAUCAACAGAGGAUUGAGCAUCA
B15: chr11:95591783:95591784:-_ENSG00000087053_ENST00000352297|hu_mus|FALSE|FALSE (ssRNA)
RNA: GGGAGUUCUACAGUCCGACGAUCUCUCAAAUAUGGAUCUUCUUGUUCGCCCCUCCGGUUUAUGAGCAAAUCGCAAGUUCCUGAUAUCCUUGCACACAGUUUCCAGGCCAUAGGAGUUUUCACCUCGGCUAGAUGCACCACCAACAACAGAGGAUUGAGCAUCA
B16: chr1:122009976:122009977:-_ENSMUSG00000026385_ENSMUST00000027634|mus_mus|FALSE|FALSE (ssRNA)
RNA: GGGAGUUCUACAGUCCGACGAUCAAUUGAUUGUAGGUAAAAACUACAGAGGGAGGAGGAGCAGAGGUUAACGCUGGCCCUAAUGUAUCACAGCCAUAUCAUCUACAUUAGAAAAAACCAAGGCAUUAUGUCCUCACAGGUCACCAACAGAGGAUUGAGCAUCA
B17: chr2:232320318:232320319:-_ENSG00000115053_ENST00000322723|hu_hu|hu_hu_hu_mus_True|58_108 (ssRNA)
RNA: GGGAGUUCUACAGUCCGACGAUCACUGUUGAAGUCUACAAAACCAAACCCUUUGGAAGAACCAGUUUCCCGAUCAGUAACUAUCCUUGCACGAACAGAGCCCUCAAAUGAUUCUUUUAAGGUCUCUUCAGUGGUAUCCUCAGACAACAGAGGAUUGAGCAUCA
B18: chr16:94914985:94914986:+_ENSMUSG00000022897_ENSMUST00000023614|mus_hu|FALSE|FALSE (ssRNA)
RNA: GGGAGUUCUACAGUCCGACGAUCGUGAGGCAAAAAAGCAGUCACAUAAAAUUCUGCAUUUUUUAAAAAUGUUCAGGAUGAACAGAAGACAUCUUUGUGCAGAAGAAAUGGUGGAGAUACCACGUGCCGAGAAAAAGCAAAAGACAACAGAGGAUUGAGCAUCA
B19: 42743488_42743608_1179_3pUTR_ENSG00000103994_ENST00000263805|human|control|control (ssRNA)
RNA: GGGAGUUCUACAGUCCGACGAUCAUCACUUGUAAAUCCUUCAGAAGGACCUCUAUAUGUGGCAACUGUACCAAGUUUGUCAUUUUCUUGCCGCUGCCAAUUAUAUCUGUCGUGACUGUAUUUGUUUGACUUAUUAGAUUUCUUCAACAGAGGAUUGAGCAUCA
B20: chr11:46405157:46405158:+_ENSG00000110492_ENST00000395566|hu_hu|hu_hu_hu_mus_False|28_58 (ssRNA)
RNA: GGGAGUUCUACAGUCCGACGAUCCCCUCCCCACUUUGGGCACUUGGUGUGGGCGUGAGAGGACAGGCGUGAUUGACAAAGCUAACGGGAAGACAAAAGGCACUGGUGGGUCACAUCUUGGGCCUGUGGGAGAGGAGGGCUCCGCAACAGAGGAUUGAGCAUCA
B21: chr9:48874791:48874792:+_ENSMUSG00000032264_ENSMUST00000034803|mus_mus|FALSE|FALSE (ssRNA)
RNA: GGGAGUUCUACAGUCCGACGAUCAAGCAUCUCAGCCAACACGAUCCCAGGGACUUUUCCAAUUUCUAGGUCAGCAUCAAGAGGCAAAUCUAGAAGCUGUUUCUGGAGCACUUCCAGGACCAAUCGGAUCUUUGCAAAAGCUUCCAACAGAGGAUUGAGCAUCA
B22: chr2:10924439:10924440:-_ENSG00000143870_ENST00000272227|hu_mus|FALSE|FALSE (ssRNA)
RNA: GGGAGUUCUACAGUCCGACGAUCUCGCUCCCAAGGAAAGCCCAAGGAAGGCUGGGCCGUGGCUCACAACUCAUCCUUCUCCAGGUCAUCCAGCUCCACGUCACUGAGGUCAAUGUCGUCCUCCACAGGGAGCUCACCAUCCUUCAACAGAGGAUUGAGCAUCA

Target: T1, UNK ZnF1-3 (human, UniProt Q9C0B0 31-174)
T1 sequence: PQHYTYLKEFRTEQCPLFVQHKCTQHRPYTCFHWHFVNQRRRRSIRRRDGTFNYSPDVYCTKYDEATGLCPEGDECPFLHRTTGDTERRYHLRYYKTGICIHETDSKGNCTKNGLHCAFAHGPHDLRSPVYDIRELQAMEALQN
Experiment: nsRBNS (natural sequence RNA bind-n-seq); RBNS binding buffer (assumed for nsRBNS): 25 mM Tris pH 7.5, 150 mM KCl, 3 mM MgCl2, 0.01% Triton X-100, 500 ug/ml BSA, 20 U/ml SUPERase-In, 4 C; UNK is unkempt and MSI1 is Musashi-1; names of the RNAs are library labels; protein concentration not given here; high values mean tight binding

Binder | binding signal [enrichment R]
B1 | 1.38
B2 | 1.11
B3 | 1.58
B4 | 0.576
B5 | 1.24
B6 | 2.01
B7 | 0.74
B8 | 0.971
B9 | 0.93
B10 | 0.947
B11 | 0.971
B12 | 1.59
B13 | 2.26
B14 | 1.17
B15 | 1.04
B16 | 2.37
B17 | 0.623
B18 | 1.33
B19 | 0.408
B20 | 2.37
B21 | 1.61
B22 | 0.859
